Laboratory results from the supplement of paper PMC3334620.
Whole data set: some 33,000 sequences, median “E-score (-0.5 to 0.5)” near -0.035, cut for the highest 2% near 0.35. The list shows a part of the results.

These sequences were tested against T1, Pdr3 (UniProt P33200) (assay: PBM E-score (8-mer binding enrichment) (E-score (-0.5 to 0.5)); higher = stronger / more preferred TF binding; most listed sequences are background and not binding sites). Conditions: protein concentration: 200 nM; construct: GST-full length.
T1 sequence: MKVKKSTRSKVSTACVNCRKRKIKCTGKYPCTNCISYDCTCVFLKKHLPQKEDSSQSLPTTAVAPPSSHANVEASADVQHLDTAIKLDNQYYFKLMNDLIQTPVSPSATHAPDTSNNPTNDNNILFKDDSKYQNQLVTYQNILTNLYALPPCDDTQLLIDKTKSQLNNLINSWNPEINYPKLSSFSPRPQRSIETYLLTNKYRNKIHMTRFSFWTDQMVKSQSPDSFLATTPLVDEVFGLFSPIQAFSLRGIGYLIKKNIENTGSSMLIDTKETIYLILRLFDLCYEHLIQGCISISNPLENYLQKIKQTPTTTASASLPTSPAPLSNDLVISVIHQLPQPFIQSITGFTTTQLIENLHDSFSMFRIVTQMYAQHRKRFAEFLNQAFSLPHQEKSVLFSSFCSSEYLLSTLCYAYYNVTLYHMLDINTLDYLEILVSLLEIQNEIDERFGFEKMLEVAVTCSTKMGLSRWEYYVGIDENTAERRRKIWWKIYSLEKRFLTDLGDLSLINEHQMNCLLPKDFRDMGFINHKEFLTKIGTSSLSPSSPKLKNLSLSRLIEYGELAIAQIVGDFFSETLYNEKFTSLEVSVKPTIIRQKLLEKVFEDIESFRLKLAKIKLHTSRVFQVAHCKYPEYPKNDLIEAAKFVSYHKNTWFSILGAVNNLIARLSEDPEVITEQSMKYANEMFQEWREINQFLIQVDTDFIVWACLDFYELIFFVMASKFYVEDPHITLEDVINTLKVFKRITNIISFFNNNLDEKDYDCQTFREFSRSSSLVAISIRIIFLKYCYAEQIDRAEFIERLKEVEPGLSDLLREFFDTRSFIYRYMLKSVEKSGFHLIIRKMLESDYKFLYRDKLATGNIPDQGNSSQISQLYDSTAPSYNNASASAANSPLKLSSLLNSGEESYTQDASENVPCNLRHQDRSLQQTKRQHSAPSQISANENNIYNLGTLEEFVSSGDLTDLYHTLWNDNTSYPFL
Description: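 Universal 'all 10-mer' protein binding microarrays (Agilent AMADID 015681) probed with GST-tagged S. cerevisiae TFs (full-length or DBD) made by in vitro transcription/translation (PURExpress), about 100-200 nM. Bound TF was detected with fluorescent anti-GST. Each ungapped 8-mer (which stands for itself and its reverse complement) is scored by the PBM enrichment score (E-score), a modified Wilcoxon-Mann-Whitney statistic from -0.5 to +0.5, computed with the Universal PBM Analysis Suite. Scale: above 0.35 generally sequence-specific binding.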

Row | Sequence | PBM E-score
1 | AAGCGTGC | -0.0354
2 | TCTTTGCA | -0.167
3 | CATGTAGC | -0.0755
4 | CCGCAGAA | 0.22
5 | ATGACCCG | 0.0321
6 | GCATACGA | -0.127
7 | ATTTATGG | -0.171
8 | CTGCCTAA | -0.22
9 | GGAACAGA | 0.161
10 | CTCAGGTC | -0.00893
11 | GCCACCAC | -0.257
12 | CTCAACCC | 0.0237
13 | CACTTGCC | -0.0319
14 | CATGACCC | -0.0203
15 | CGACGCAC | -0.0357
16 | GATGGACC | 0.0708
17 | AGCCTATG | -0.257
18 | GTTCTCAA | -0.0516
19 | ACTACAAG | -0.124
20 | ACTTCGCG | 0.222
21 | CGTAGCAG | -0.0716
22 | GGACTTCA | 0.0537
23 | ACTTGGCA | -0.231
24 | CAGCTCCG | 0.291
25 | CTCTAACC | -0.0554

Row | Sequence | PBM E-score
26 | AACTATAA | 0.137
27 | TAAGCCTA | -0.0813
28 | CTTCTAAC | -0.311
29 | GACATGAA | 0.0502
30 | CGCTTTCA | 0.0784
31 | CGCGCACG | 0.275
32 | CTACAAGA | -0.0727
33 | CGTCTGTC | 0.149
34 | AATACTCG | -0.00624
35 | TAAGCGCA | -0.295
36 | ACCAATGG | 0.0557
37 | CACCCACC | 0.0132
38 | CCCCAGAA | 0.00938
39 | AAGGTATA | -0.219
40 | ATCCGCGA | 0.21
41 | GAGTGCCC | -0.00271
42 | GGTTCACA | -0.0772
43 | TAAGTTGA | -0.107
44 | GGCATACA | 0.0317
45 | CCCAGAGC | -0.229
46 | ACAGTCAC | -0.211
47 | ACTTCCCT | 0.0274
48 | CAGGCGTA | -0.145
49 | ACCAGCAC | -0.204
50 | CCAAGCCG | -0.0356

Row | Sequence | PBM E-score
51 | GGCGATGA | 0.0108
52 | AGCCCGAG | -0.044
53 | AGAGCTCT | -0.267
54 | CGGCCAGC | 0.233
55 | TATGGCCA | -0.0695
56 | AGTCGACA | 0.001
57 | CTTAACTC | -0.00401
58 | CCTCGAAA | -0.114
59 | AAGGAGTA | -0.0777
60 | ATCGTCTA | -0.188
61 | CGACGTGC | -0.015
62 | CGAACTTA | 0.0051
63 | AATTGTCG | 0.00999
64 | AATGCTGT | -0.243
65 | AGGCTAAT | 0.00914
66 | CACGCTTA | -0.185
67 | CATGTACC | -0.258
68 | GCCTGCCA | -0.00657
69 | AGTGTGCC | -0.0578
70 | CGGGGGTA | 0.176
71 | CCCGAAAA | 0.191
72 | GAGGATTA | -0.196
73 | GCCGACAC | 0.0242
74 | GAACTTGC | 0.00484
75 | CTTCGATA | -0.0256

Row | Sequence | PBM E-score
76 | ACCCGGAG | 0.38
77 | GCAGCACA | 0.0401
78 | GGCAGTAA | -0.0438
79 | CATAAGAC | -0.00962
80 | ATGGGTAG | -0.138
81 | TGACCGAA | 0.0838
82 | ACTGTAAA | -0.0558
83 | AAACCAAA | -0.0674
84 | CAGATCCA | 0.0976
85 | CAGGTGAA | -0.141
86 | CCAGCGAA | 0.0168
87 | CCGTACTC | 0.0572
88 | GGTCACCA | -0.195
89 | CTATCGAG | -0.015
90 | AAGCTAAT | -0.0341
91 | CGTGGGGC | 0.133
92 | AGTTATCG | 0.109
93 | CTGTGTAC | -0.0325
94 | ACCAACAT | -0.0113
95 | GCCGCCTA | -0.0979
96 | GTCAACAA | -0.0887
97 | AGCCAGCC | -0.168
98 | ACTGTCTG | -0.105
99 | AAATAGTA | 0.152
100 | CCAAAACC | -0.0021

Row | Sequence | PBM E-score
101 | AATCAAGA | -0.0664
102 | TAAAAGTA | -0.0121
103 | ATGGCCCA | 0.0826
104 | CCCCTCCC | 0.0589
105 | CGTTACGA | 0.0482
106 | GGTTCTGA | -0.109
107 | GCATGCGA | 0.169
108 | GCCGTGAC | 0.133
109 | TGATAAAA | -0.106
110 | GATTTCAA | 0.0876
111 | ATAGGACG | -0.0149
112 | GGCTACCA | -0.144
113 | AGCCACCT | -0.281
114 | ATGATTAG | -0.00126
115 | GGATGGTA | 0.116
116 | GGACATTA | 0.22
117 | ACGTAACC | -0.139
118 | CAATGATG | -0.0442
119 | CCCGGTGA | 0.156
120 | AGTCATCA | -0.0174
121 | ATCGACTC | -0.096
122 | CGTCGCAG | -0.167
123 | AGCCCAAC | -0.193
124 | ATCTTGAG | -0.0987
125 | GGGACGAA | 0.162

Row | Sequence | PBM E-score
126 | CAGGGCGA | 0.0342
127 | GGAGATAC | 0.221
128 | CGTGACAA | 0.0645
129 | CTTCCCGA | 0.291
130 | AACGCATT | 0.052
131 | ACTGACCG | -0.00211
132 | CATCTTGA | -0.139
133 | AGAGTTTG | -0.057
134 | TACGCCTA | -0.129
135 | GGGTGTCA | -0.0115
136 | CCCCGACC | 0.0391
137 | CGGCAACA | 0.153
138 | AATAATGC | 0.16
139 | CGTCACCA | -0.147
140 | AAACCTGC | -0.0837
141 | TACGAAAA | -0.149
142 | ACTAAAAC | -0.0196
143 | AGCTGTCC | -0.116
144 | TAGAGCGA | -0.247
145 | ACACGCCA | -0.0389
146 | ACTCCCGC | 0.189
147 | ATGTAAAC | 0.0323
148 | CGGAGCAA | 0.338
149 | CTCTTACA | -0.239
150 | CGGATCTA | 0.268

Row | Sequence | PBM E-score
151 | ACAGATAT | -0.0248
152 | AAACTAAG | 0.0156
153 | ACGTTTCG | -0.11
154 | CATCAAAA | -0.0452
155 | GAATAGGA | 0.0694
156 | ATCATCAT | -0.0567
157 | GTTCGCCA | 0.0685
158 | GCCCGCAA | 0.24
159 | AAAGGACT | -0.111
160 | CACTCGAC | -0.0814
161 | GGGGTATA | -0.0503
162 | CGGCATTC | 0.263
163 | GGACAAAA | 0.272
164 | ATGCACCC | 0.136
165 | AGCCCACA | -0.286
166 | ACATGGAC | -0.15
167 | CAAATGTC | -0.165
168 | TCATTTCA | -0.0161
169 | CTGAGAAC | -0.0961
170 | ATTGGCGC | 0.0678
171 | CTGGGAAG | -0.176
172 | AAAGGGCC | -0.189
173 | ACGATAAG | 0.051
174 | AATTCTAC | -0.126
175 | AAAAAGAG | -0.192

Row | Sequence | PBM E-score
176 | CGGGACGA | 0.239
177 | ACTTAAGC | -0.0629
178 | CCAGGGCC | -0.118
179 | GGAATGGA | 0.212
180 | AGACCGAG | 0.146
181 | GCGAATAA | 0.0522
182 | AAGTCCAG | -0.0628
183 | CTTCTGAA | 0.0257
184 | ACATGGCG | 0.0149
185 | AAGTTAAA | -0.216
186 | ATAGGTAG | -0.23
187 | CCGCGACG | 0.138
188 | GCTTGCAA | -0.0506
189 | TAATCTCA | -0.1
190 | ACGGGCTA | -0.0674
191 | CAGCACCC | -0.215
192 | GCTGGCAC | -0.282
193 | ATTTGTCC | 0.161
194 | ATCAAGAG | 0.0435
195 | CTCACCAA | 0.136
196 | ACGTGCGA | -0.0586
197 | ATGGAATC | 0.205
198 | ATTGGACC | -0.0639
199 | CTGATGCC | 0.0333
200 | CTTTCTCC | 0.0502

Row | Sequence | PBM E-score
201 | CTAATCAC | 0.0587
202 | ACTACATA | -0.196
203 | AACCGCAA | 0.0963
204 | GTCTCTAA | -0.0701
205 | CCAAAGCC | -0.0696
206 | ACACAGTC | -0.0508
207 | CCGTCTAG | 0.178
208 | CTCATGGC | 0.0503
209 | TAGCTATA | -0.197
210 | GCCCTAAC | 0.13
211 | AAGGACTG | -0.168
212 | GTTCCCGA | 0.267
213 | CAAAAGGC | -0.131
214 | TTAAACAA | -0.279
215 | CATCCGGG | 0.261
216 | CATTTTCC | 0.221
217 | GGCACGCC | -0.111
218 | GTATACGA | -0.0247
219 | AATGAACA | -0.0284
